The source gives no read counts; variants with many changes may rest on few reads.
B1: LINE1-mini (parent)
chain: GGCAGAGCUCAACACAGCGUGGCAAAGUGGCUGUGGCUAGACUGCC

Variants of: B1
Assay: self-cleavage, relative activity (ratio to wild type); higher = more cleavage; in vitro, sequencing; the parent is a self-cleaving ribozyme

Row | Variant | self-cleavage
1 | GGCAGAGCACAACACAGCGUGGCCAAGUGGGUGUGACUUGACUGCC [U9A A24C C31G G36A A39U] | 0.02
2 | GGCAGAGCACAACACUACCUGGCAAAGUGGCUGUGGCUAGACUGCC [U9A A16U G17A G19C] | 0.06
3 | GGCAGAGCACAACGCAGAGUGGCAAAGUGGCUGUGGCUAGACCCCC [U9A A14G C18A U43C G44C] | 0.02
4 | GGCAGAGCACAACACUACGUGGCAAAGUGGCUGUGGCUAGACUGCC [U9A A16U G17A] | 0.02
5 | GGCAGAGCACAUCACAACGUGGCAAAGUGGCGGUGGCUAGACUGCC [U9A A12U G17A U32G] | 0.04
6 | GGCAGAGCACAACUCAGCGUGGCAAAGUGGCUGUGGCUAGACUCCC [U9A A14U G44C] | 0.16
7 | GGCAGAGCACACCACAGCGUGGCAAAGUGGCUGUGGCUCGACUGCC [U9A A12C A39C] | 0.02
8 | GGCAGAGCACAACGCAGCGUGGCAAAGUGGCUGUGGCUAUACUUCC [U9A A14G G40U G44U] | 0.45
9 | GGCAGAGCACAACACGGCGUGGCAAAGUGGCUGUCGCUAGACUGCC [U9A A16G G35C] | 0.21
10 | GGCAGAGCACAACACGGCGUGGCAAAGUGGCUGUUGCUAGACUGCC [U9A A16G G35U] | 0.04
11 | GGCAGAGCACAACUCGGCGUGGCAAAGUGGCUGUGGCUAGACUGCC [U9A A14U A16G] | 0.05
12 | GGCAGAGCACAACGCAGAGUUGCAAAGUGGCUAUGGGUAGACUGCC [U9A A14G C18A G21U G33A C37G] | 0.03
13 | GGCAGAGCACACCACAGCGUGGCAAUGUGGCUGUGGCUAGACUGCC [U9A A12C A26U] | 0
14 | GGCAGAGCACAACUCAGCGUGGCAAAGUGUCUGAGGCUAGAUUGCC [U9A A14U G30U U34A C42U] | 0.01
15 | GGCAGAGCACAACACCCCGAGGCAAAGUGGCUGUGGCUAGACUGCC [U9A A16C G17C U20A] | 0.06
16 | GGCAGAGCACAUCAAAGCGUGGCAAAGUGGCUGUGGCUAGCCUUCC [U9A A12U C15A A41C G44U] | 0.02
17 | GGCAGAGCACAACGCAGCGUGGCAAAGUGGCUGUGGCUUGACUGCC [U9A A14G A39U] | 0.09
18 | GGCAGAGCACAGCACAGGGUGGCAAAGUGGCUGUGGCUAGACUGCC [U9A A12G C18G] | 0.01
19 | GGCAGAGCACAACGCAGCGUGGCAAAGUGGCUGUGGCUAGACUGCA [U9A A14G C46A] | 0.03

Row | Variant | self-cleavage
20 | GGCAGAGCACAACACUGCGUAUCAAAGUGGCUGUGGAUAGACUGAC [U9A A16U G21A G22U C37A C45A] | 0.04
21 | GGCAGAGCACAACACAGCGUGGCCAAGUGGCUGUCUCCAGACUGUC [U9A A24C G35C G36U U38C C45U] | 0.03
22 | GGCAGAGCACAACACUGCGUGGCAAAGUGGCUGUGGCUUGAGUGCC [U9A A16U A39U C42G] | 0.26
23 | GGCAGAGCACACCACAGCGUGGCAAAGUGGCUGUGGCUAGACUGCU [U9A A12C C46U] | 0.1
24 | GGCAGAGCACAGCACAGCGUGGCAAAGUGGCUGUGGCUAGACUGAC [U9A A12G C45A] | 0.01
25 | GGCAGAGCACAACACAGCGUGGCCAAGUGCCUGUGGUUAGACAGCC [U9A A24C G30C C37U U43A] | 0.3
26 | GGCAGAGCACAACACAGCGUGGCAACGAGGCUUUGGCUAGCCCGCC [U9A A26C U28A G33U A41C U43C] | 0.04
27 | GGCAGAGCACAACACGGCGUGGCAAAGUGGCUGUGGCCAGACUGCC [U9A A16G U38C] | 0.02
28 | GGCAGAGCACAACACAGCGUGGCGCUGUGGCUGUGGCUAAACUGCC [U9A A24G A25C A26U G40A] | 0
29 | GGCAGAGCACAACACAGCGUGGCUAAUUGGCUGUGGCUAGACUGCC [U9A A24U G27U] | 0.27
30 | GGCAGAGCACAGCACAACGUGGCAAAGCGGCUGUGGCUAGACUGCC [U9A A12G G17A U28C] | 0
31 | GGCAGAGCACAACACAGCGUGGCAUAGUAGCAGUGGCUAGACUGCG [U9A A25U G29A U32A C46G] | 0.05
32 | GGCAGAGCACAACACGGCGUGGCUAAAUGGCCGUGGGUAGAAUGCC [U9A A16G A24U G27A U32C C37G C42A] | 0
33 | GGCAGAGCACAGCACAGUGUGGCACAGUGGCUGUGGCUAGACUGCC [U9A A12G C18U A25C] | 0.01
34 | GGCAGAGCACAACACAGCGUGGCAGAGUGGGUGUGGCUAGACUGCC [U9A A25G C31G] | 0.22
35 | GGCAGAGCACAACGCAGCGUGGCAACGUGGCUGUGGCUAGACUGCC [U9A A14G A26C] | 0.02
36 | GGCAGAGCACAUUAUAGCGUGGCGAAGUGGCUGUGGCUAGCCUGCC [U9A A12U C13U C15U A24G A41C] | 0.1
37 | GGCAGAGCACAGCGCAGCGUGGCAAAGUGGCUGUGGCUAGACUGCC [U9A A12G A14G] | 0.02
38 | GGCAGAGCACAACACAGCGUGGCCAAGUGGCUGUGGCCAGACUGCC [U9A A24C U38C] | 0.15

Row | Variant | self-cleavage
39 | GGCAGAGCACAACACUGCGUGGCAAAAUGGCUGUGGCUAGACUGCC [U9A A16U G27A] | 0.1
40 | GGCAGAGCACAUCAUAGCGUGACAAAGUGGCUGUGGCUAGACUGCC [U9A A12U C15U G22A] | 0.29
41 | GGCAGAGCACAUCACAGCGUUACAAAGUGGCUGUGGCUAGACUGCC [U9A A12U G21U G22A] | 0.05
42 | GGCAGAGCACAACACAGCGUGGCUAAGUGGCUGUGGCUAGACUGCG [U9A A24U C46G] | 0.08
43 | GGCAGAGCACAUCAUAGCGUGGCAAAGUGGCUGUGGCUAGACUGCC [U9A A12U C15U] | 0.3
44 | GGCAGAGCACAACUCAGCGUGGCAAAGUGGCUUUGGCUAGACUGGC [U9A A14U G33U C45G] | 0.01
45 | GGCAGAGCACAACACUGCGUGGCAAAGUGACUGUGGCGAGACAGCC [U9A A16U G30A U38G U43A] | 0.1
46 | GGCAGAGCACAUCACAGCGUGGCAAGGUGGCUGUGGCUAGACUGCC [U9A A12U A26G] | 0.16
47 | GGCAGAGCACAGCACAGCGUGGCAUAGUGGCUGUGGCUAGACUGCC [U9A A12G A25U] | 0
48 | GGCAGAGCACAACACGGCGUGGCAAAGUGGCUGUGGCUAGAGUGCC [U9A A16G C42G] | 0.03
49 | GGCAGAGCACAACUCAGCGUGGGAAAGUGGCUGUGGCUAGACUGCC [U9A A14U C23G] | 0.07
50 | GGCAGAGCACAACUCAGCGUGGUAAAGUGGCUGUGGCUAGACUGCC [U9A A14U C23U] | 0.05
51 | GGCAGAGCACACCACAGCGUGGCAAAGUGGCUGUGGCUAGAGUGUA [U9A A12C C42G C45U C46A] | 0
52 | GGCAGAGCACAACACAGCGUGGCACAAUGGCUGAGGCUAGAUUGCC [U9A A25C G27A U34A C42U] | 0.2
53 | GGCAGAGCACAUCACAGCGUGGCAAAGUGGCUGUGGCUAGACUGAU [U9A A12U C45A C46U] | 0.14
54 | GGCAGAGCACAACACCGCGUGGAAAAGUGGCUGUGGCUAGACUGCC [U9A A16C C23A] | 0.22
55 | GGCAGAGCACAACUCAGCGUGGCAAAGUGGCUGUGGCUAGAGUGCU [U9A A14U C42G C46U] | 0.21
56 | GGCAGAGCACAACGCAGCGUGGCAAAGUGGCUAUGGCUAGACUGCC [U9A A14G G33A] | 0.01

Source: the RNAGym collection of RNA variant scans (doi:10.7554/elife.90254)
